Test results reported in article PMC4336329 (PLoS ONE, 2015).
The whole screen tested about 310,000 compounds, of which about 2,200 (0.71%) showed an effect of 50% or more. The effect is printed as a negative number. The list shows a part of the results.

The compounds below were run against human ether-à-go-go-related gene (hERG) potassium channel (human, UniProt Q12809) (assay: primary screen, population patch clamp on CHO cells stably expressing hERG).
human ether-à-go-go-related gene (hERG) potassium channel, sequence (Q12809 whole entry, looked up): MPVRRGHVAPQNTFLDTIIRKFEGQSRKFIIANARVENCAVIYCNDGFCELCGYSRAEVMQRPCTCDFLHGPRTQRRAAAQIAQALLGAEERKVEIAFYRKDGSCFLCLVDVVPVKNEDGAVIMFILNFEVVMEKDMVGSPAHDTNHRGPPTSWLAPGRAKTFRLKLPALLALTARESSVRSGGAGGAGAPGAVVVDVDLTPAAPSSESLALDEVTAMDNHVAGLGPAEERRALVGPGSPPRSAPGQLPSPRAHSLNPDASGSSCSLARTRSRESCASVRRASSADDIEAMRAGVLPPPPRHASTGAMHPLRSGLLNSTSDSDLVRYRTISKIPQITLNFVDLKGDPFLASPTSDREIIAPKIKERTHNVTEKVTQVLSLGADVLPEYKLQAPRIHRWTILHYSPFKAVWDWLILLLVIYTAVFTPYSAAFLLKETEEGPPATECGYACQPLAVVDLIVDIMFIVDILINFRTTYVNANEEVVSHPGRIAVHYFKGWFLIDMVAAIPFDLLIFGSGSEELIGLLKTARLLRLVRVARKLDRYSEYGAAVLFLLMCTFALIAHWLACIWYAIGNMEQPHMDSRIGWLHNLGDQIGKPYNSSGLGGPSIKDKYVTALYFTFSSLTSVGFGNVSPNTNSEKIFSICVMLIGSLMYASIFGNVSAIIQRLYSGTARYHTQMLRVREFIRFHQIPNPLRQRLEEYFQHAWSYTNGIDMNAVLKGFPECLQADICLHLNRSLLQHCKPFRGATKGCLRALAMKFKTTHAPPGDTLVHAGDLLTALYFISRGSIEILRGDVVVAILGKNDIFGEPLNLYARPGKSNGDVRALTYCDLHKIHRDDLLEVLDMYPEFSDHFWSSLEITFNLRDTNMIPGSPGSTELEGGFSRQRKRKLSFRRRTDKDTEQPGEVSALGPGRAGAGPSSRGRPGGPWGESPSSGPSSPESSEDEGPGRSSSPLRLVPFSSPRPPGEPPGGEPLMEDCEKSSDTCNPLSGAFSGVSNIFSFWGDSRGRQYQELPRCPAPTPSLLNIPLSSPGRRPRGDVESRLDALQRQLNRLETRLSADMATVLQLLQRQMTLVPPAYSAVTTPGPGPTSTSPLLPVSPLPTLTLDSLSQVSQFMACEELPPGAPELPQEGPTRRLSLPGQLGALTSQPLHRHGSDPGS

| SMILES | hERG current change (%, negative = inhibition) at 1uM [%] |
| --- | --- |
| COc1ccc(CC(=O)N/N=C/c2sccc2C)cc1 | 17 |
| O=S(=O)(Nc1ccc2ccccc2c1)c1ccccc1 | 14.1 |
| CC(=O)Oc1cccc(N2C(=O)c3cccc4c([N+](=O)[O-])ccc(c34)C2=O)c1 | 13.4 |
| COc1ccccc1-c1cc(N)n(S(=O)(=O)c2cccc3nsnc23)n1 | 18.4 |
| CCC1CCCCN1S(=O)(=O)c1ccc(NC(=O)c2cccnc2)cc1 (centres unmarked) | 7.93 |
| CCc1cc(=O)oc2cc(C)cc(OCC(=O)NCCCn3ccnc3)c12 | -7.42 |
| CCOC(=O)/C(C#N)=C1\C(=O)N(Cc2ccccc2)c2ccccc21 | 8.56 |
| COCCNC(=O)c1ccc(N2CC3CC(C2)c2cccc(=O)n2C3)c(NC(=O)c2cc(OC)cc(OC)c2)c1 (centres unmarked) | 14.6 |
| Cc1ccc(C)c(N2CCN(C(=O)C3CCCCN3S(=O)(=O)c3ccc(F)cc3)CC2)c1 (centres unmarked) | 3.42 |
| CCCCn1nnc(NC(=O)c2ccc(-c3cccc(Cl)c3)o2)n1 | -16.2 |
| CCc1ccc(C(=O)c2ccccc2C(=O)O)s1 | 19 |
| CSc1nc2c(c(=O)[nH]1)C(c1ccccc1Cl)CC(=O)N2 (centres unmarked) | 9.59 |
| Cc1ccccc1-[n+]1c(-c2ccccc2)cc(-c2ccccc2)cc1-c1ccccc1.[O-][Cl+3]([O-])([O-])[O-] | -55.8 |
| O=S(=O)(c1ccc(N2CCCC2)nc1)N1CCOCC1 | 2.26 |
| Cc1cccc(C(=O)Nc2ccccc2N2CCN(c3ccc(F)cc3)CC2)c1 | 13.7 |
| COc1ccc(NC(=O)c2cccc(OS(=O)(=O)N(C)C)c2)cc1 | 10.1 |
| COC(=O)c1sccc1NC(=O)Cn1nnc(-c2ccccc2C)n1 | 12 |
| CCOc1ccc(NC(=O)C/C(C)=N/NC(=O)Cc2ccc(Cl)cc2)cc1 | 11.2 |
| COc1ccc(-n2c(=O)[nH]cc(C(=O)N3CCc4ccccc43)c2=O)cc1 | 19.7 |

| SMILES | hERG current change (%, negative = inhibition) at 1uM [%] |
| --- | --- |
| N=C1C(=O)OCC1c1cc(Cl)ccc1NC(=O)Nc1ccccc1 (centres unmarked) | 9.53 |
| COc1cc2c(cc1OC)C(SC)=NC(C)(C)C2 | 4.12 |
| O=C(CSc1nnc(Cc2cccs2)n1Cc1ccco1)Nc1ccc(Br)cc1 | 13.6 |
| COc1ccc(-c2cc(C(=O)N/N=C(\C)c3cccnc3)c3ccccc3n2)cc1 | 6.38 |
| CC1CCCN(C2(O)C(=O)Nc3c(C(F)(F)F)cccc32)C1 (centres unmarked) | 14.4 |
| CC(C)(C)c1nc2sc3c(c2c(=O)o1)CCCC3 | 16.4 |
| COc1cc(OC)c(C#N)c(S(=O)Cc2ccccc2)c1 (centres unmarked) | 9.56 |
| O=c1c2sccc2n(Cc2cccc(F)c2)c(=O)n1-c1ccc(F)cc1 | 4.2 |
| Fc1c(F)c(F)c(NC2=NCCCCC2)c(F)c1F | 11.8 |
| c1cc2c(cn1)cnc1cscc12 | 9.4 |
| CCCCN(C(=O)CCCc1nc2ccccc2s1)c1c(N)n(CC(C)C)c(=O)[nH]c1=O | -2.09 |
| CCn1c(SCC(=O)N2CC(=O)Nc3ccccc32)nnc1-c1ccoc1C | 18.4 |
| Cc1ccc(NC(=O)c2nnn(-c3cc(C)cc(C)c3)c2N)cc1 | 14.1 |
| CC(=O)c1cccc(N2C(=O)C3C4CCC(C4=C(C)C)C3C2=O)c1 (centres unmarked) | 22.7 |
| O=C(c1ccco1)N1CCN(c2nc(C3CC3)nc3sc4c(c23)CCCC4)CC1 | 5.16 |
| CC1CCN(c2ccc(NC(=O)c3ccc([N+](=O)[O-])o3)cc2)CC1.Cl | 1.39 |
| C=CCN(CC=C)C(=O)Nc1ccc2nc(C)sc2c1 | 10 |
| CC(=O)O.NCc1ccc(S(N)(=O)=O)cc1 | 18.4 |
| Cc1ccc(O)c(C(=O)c2cnc3onc(-c4ccc(F)cc4)c3c2)c1 | 1.82 |

| SMILES | hERG current change (%, negative = inhibition) at 1uM [%] |
| --- | --- |
| COC(=O)CN(C)C(=O)c1ccc(OC)c(OC2CCN(C(C)C)CC2)c1 | 12.2 |
| O=C(NC(=S)Nc1ccc(N2CCOCC2)c(Cl)c1)c1cncc(Br)c1 | 8.18 |
| COc1ccc(CC(=O)N(Cc2ccccc2)c2ccc(C)cc2)cc1OC | -1.64 |
| O=C(O)c1cc(NC(=O)c2ccc([N+](=O)[O-])cc2)cc(NC(=O)c2ccc([N+](=O)[O-])cc2)c1 | 7.26 |
| O=C(N/N=C/c1cccs1)c1ccc2ncccc2c1 | 5.95 |
| O=C(Cn1nnc(-c2ccccc2)n1)N/N=C/c1cc([N+](=O)[O-])c(Cl)cc1Cl | 11.8 |
| CCC1(c2ccccc2)NC(=S)N(c2ccc(C)c(C)c2)N1 (centres unmarked) | 19.2 |
| CCN(CC)CCCNC(=O)c1cn(-c2cccc(OC)c2)c(=O)c2ccccc12 | -17.2 |
| Cc1[nH]c2ccc(C(=O)OC(C)C(=O)N(C)c3ccccc3)cc2c1C (centres unmarked) | 3.12 |
| CCC(=O)N(Cc1cc2ccccc2[nH]c1=O)c1ccccc1OC | 9.38 |
| O=C(/C=C/c1ccco1)Nc1cccc(S(=O)(=O)N2CCOCC2)c1 | -5.85 |
| O=C(Nc1ccccc1)c1c(O)[nH]c(=S)[nH]c1=O | 14.2 |
| Cc1c(O)ccc2c(CN3CCN(CCO)CC3)cc(=O)oc12 | 9.31 |
| CC(=O)Nc1nnc(CCS(=O)(=O)c2ccc(C)c(C)c2)s1 | 11.7 |
| CCOC(=O)c1cnc(SCC(=O)Nc2ccc(NC(C)=O)c(OC)c2)nc1N | 15 |
| CC(CNC(=O)COC(=O)c1cccs1)c1ccccc1 (centres unmarked) | 11.2 |
| Brc1ccc(CSc2nnc(-c3cccnc3)o2)cc1 | 6.81 |
| CC(C)(CN1CCN(C(c2ccccc2)c2ccccc2)CC1)NS(=O)(=O)c1ccccc1 | 9.37 |
